Laboratory results reported in PubChem BioAssay AID1347417 (National Center for Advancing Translational Sciences (NCATS), 2020).
About 5,300 (4.4%) of roughly 120,000 compounds were called active. The inconclusive results got no clear call from the source; some entries with a clear call stand among them for comparison. Calls come from the whole dose curve; as a rule, active = well fitted inhibition curve with a large enough effect; inconclusive = small, poorly fitted or top-dose-only effect; inactive = no such curve, though single readings can be large or run the other way. A potency beside an inconclusive call is a rough fit, not a confirmed value.

experiment: qHTS Primary assay for Inhibitors of Plasmodium falciparum Dd2 growth in vitro; note: nearly all actives have a fitted effect of over 65% in size;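 for activity, negative = inhibition: plate controls were DMSO vehicle for no effect and reference drug for full effect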; details: P. falciparum Dd2 growth, SYBR Green, 72 h; activity, negative = inhibition: at 28.9 µM (top of the series) unless noted; series mostly up to 28.9 µM
How it was run: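 Infected erythrocytes (Dd2, 0.3% parasitemia, 2.5% hematocrit final) are added to compound in RPMI-1640/Albumax II medium, grown 72 h at 37C in low oxygen, then lysed with saponin/Triton-X containing SYBR Green and read by fluorescence.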
Potency is the fitted concentration of half-maximal effect; tags give direction and shape of the fitted curve.

Structure (SMILES) | Potency | activity, negative = inhibition
COc1ccc(OC)c(CN2CCC3(CC2)OCCN(Cc2ccccc2)C3=O)c1 | inactive | 
COc1ccccc1NC(=O)Cn1c(=O)n(-c2cccc(C)c2)c(=O)c2c1cc(C)n2C | inconclusive: 17.8 µM [inhibitor, single point] | 
CN1CCN(CCNC(=O)CCc2ccc3c(c2)CN(S(C)(=O)=O)CCO3)CC1 | inactive | 
O=C(Cn1nc2n(c1=O)CCCCC2)Nc1ccc(Cl)cc1 | inconclusive: 10 µM [inhibitor, single point] | 
COc1cccc(N2CCN(c3ccc4nnc(CCC(=O)O)n4n3)CC2)c1 | inconclusive: 10 µM [inhibitor, single point] | 
CN1CC2(CCN(Cc3cccs3)CC2)CC(c2ccccc2)C1=O (stereo not drawn) | inconclusive: 12.6 µM [inhibitor, single point] | 
COCCNC(=O)CSc1nc2ccccc2nc1Cc1ccc(C)cc1 | inconclusive: 11.2 µM [inhibitor, partial curve, poor fit] | 
Cc1ccc(C(=O)N2C[C@H](c3nc(-c4ccccc4)no3)[C@@H](C)C2)cn1 | inactive | 
Cc1ccc(CNCc2c(C(=O)O)c(C)n(Cc3ccc(C)cc3)c2C)cc1 | inconclusive: 17.8 µM [inhibitor, single point] | 
Cc1nc2c(c(-c3ccc(Cl)cc3)n1)CCN(C(=O)c1ccc(C(F)(F)F)cc1)CC2 | inconclusive: 0.178 µM [inhibitor, full curve, poor fit] | 
CC(C)N1CC(c2nc(-c3ccc4nc[nH]c4c3)no2)CC1=O (stereo not drawn) | inactive | 
Cc1ccc(S(=O)(=O)N2CCN(C3CCN(Cc4ccccn4)C3=O)CC2)cc1 (stereo not drawn) | inconclusive: 5.01 µM [inhibitor, partial curve] | 
CCCCNC(=O)c1ccc2c(c1)n(Cc1ccc(F)cc1)c(=O)c1ccnn12 | inconclusive: 14.1 µM [inhibitor, partial curve] | 
Cn1c(=O)cc(C(=O)NC2CCCc3c2[nH]c2ccccc32)c2ccccc21 (stereo not drawn) | inactive | 
C#CCN[C@@H]1C[C@@H]2c3[nH]c4ccccc4c3C[C@@H](C(=O)OC)N2[C@H](c2ccc(F)cc2)C1 | inconclusive: 14.1 µM [inhibitor, partial curve, poor fit] | 
O=[S+]([O-])(c1cccs1)N1CCCN(c2nc3ncccc3o2)CC1 | inactive | 
COC(=O)C1=C(C)N=C2SC=C(CC(=O)NCc3cccc(F)c3)N2C1c1ccccc1Cl (stereo not drawn) | inconclusive: 0.891 µM [inhibitor, partial curve] | 
CN(C)S(=O)(=O)N1C[C@@H]2CC[C@H](C1)N(C(=O)CCn1cnnn1)C2 | inactive | 
CCc1cccc(NC(=O)CN2CCCN(Cc3cccc(C)c3)S2(=O)=O)c1 | inactive | 
CCNC(=O)Cc1c[nH]c2ncc(-c3cccnc3OC)cc12 | inactive | 
COC(=O)C1=CN(CC(=O)N2CCN(c3ccccc3)CC2)S(=O)(=O)N=C1C | inactive | 
O=C(CCc1ccccc1)N1CCC2(CC1)N=C(c1cccc(Br)c1)NO2 | inactive | 
O=C(Nc1ccc(Cl)cc1)N1CCN(c2nc3ncccc3o2)CC1 | inconclusive: 4.47 µM [inhibitor, partial curve, poor fit] | 

Structure (SMILES) | Potency | activity, negative = inhibition
CCNC(=O)c1cc2c(=O)[nH]c(-c3ccccc3)cn2n1 | inactive | 
CC(C)(C)C(=O)NCC1CCN(Cc2nc(-c3ccccc3)no2)C1 (stereo not drawn) | inconclusive: 20 µM [inhibitor, single point] | 
COc1ccccc1-n1cc(C2=CCN(CCOCCO)CC2)cn1 | inactive | 
COc1ccc(C2(C(=O)N3CCCC(CN4CCCC4)CC3)CC2)cc1 (stereo not drawn) | active: 3.16 µM | 
CN(C)Cc1cccc(-c2cc3c(ccn3Cc3ccncc3)c(N3CCOCC3)n2)c1 | inconclusive: 5.62 µM [inhibitor, single point] | 
CCNC(=O)N1CCC(c2noc(-c3cccnc3)n2)C1 (stereo not drawn) |  | inactive: 68.5% [at 5.79 µM]
O=C(NCC(c1cccnc1)N1CCN(Cc2ccccc2)CC1)C(=O)Nc1cccc(F)c1 (stereo not drawn) | inconclusive: 10 µM [inhibitor, partial curve, poor fit] | 
CNC(=O)[C@@H]1CN(Cc2cccc(OC)c2)C[C@H]1CO | inactive | 
Cc1c(CC(=O)NC2CC2)c2c(n1Cc1ccc(F)cc1)CCCC2=O | inconclusive: 0.316 µM [inhibitor, partial curve, poor fit] | 
Cc1nn2c(c1-c1ccccc1C(C)C)N(C(=O)c1cccc(C#N)c1)CCC2 | inconclusive: 31.6 µM [inhibitor, single point] | 
CCOc1cc(C)c(CN2C[C@@H](CN(C)C)C[C@H](CO)C2)cc1C(C)C | inconclusive: 8.91 µM [inhibitor, partial curve, poor fit] | 
CCOCCCNC(=O)c1c[nH]c2ccc(S(=O)(=O)Nc3cccc(Cl)c3C)cc2c1=O | inactive | 
CC(C)CCNC[C@H]1O[C@H](Cc2cc(-c3ccc(F)cc3)on2)CC[C@@H]1O | active: 3.55 µM | 
CCOCCCn1c(SCC(=O)NCCCOC)nc2c(sc3ccccc32)c1=O | inconclusive: 0.282 µM [inhibitor, full curve] | 
Cc1c(NC(=O)c2ccccc2)cc(C(C)C)c(O)c1S(=O)(=O)c1ccc(Cl)cc1 | inconclusive: 11.2 µM [inhibitor, partial curve, poor fit] | 
COc1ccc(N2Cc3c(NCCCc4ccccc4)ncnc3N(C)CC2=O)cc1 | inactive | 
CC(C)(C)CC(=O)N[C@H]1C[C@H]2C(=O)Nc3ccc(-c4cccs4)cc3C(=O)N2C1 | inconclusive: 31.6 µM [inhibitor, single point] | 
COc1ccccc1C(=O)NCC1(N2CCN(C)CC2)CCCCC1 | inconclusive: 3.98 µM [inhibitor, partial curve, poor fit] | 
CCCC(=O)N1CCC(Oc2cnc3c(ccn3-c3cncnc3)c2)CC1 | inactive | 
CC1=Nc2cc(C(=O)NC3CCCC3)ccc2Sc2ccc(Br)cc21 | active: 7.94 µM | 
CN(C)C(=O)c1cc2c(s1)CCC(C(=O)Nc1ccc(F)c(Cl)c1)C2 (stereo not drawn) | inconclusive: 3.98 µM [inhibitor, partial curve] | 
Cc1c(F)cccc1CN1CCC2(CC1)CC(c1ccccc1)C(=O)N2C (stereo not drawn) | inactive | 
Cn1cccc1CN1CC2(C1)NC(=O)c1ccccc1O2 | inactive | 

Structure (SMILES) | Potency | activity, negative = inhibition
COc1ccc(CCC(=O)N2CCN(C(=O)c3nnn4c3COC(c3ccccc3)C4)CC2)cc1 (stereo not drawn) | inconclusive: 3.98 µM [inhibitor, single point] | 
O=C1CCN(C(=O)CCc2c[nH]c3ccccc23)CCCC(C(=O)NCc2ccccc2)CCN1 (stereo not drawn) | inconclusive: 20 µM [inhibitor, single point] | 
COCCc1noc([C@@H]2CN(Cc3ccc(F)cc3)C[C@H]2CO)n1 | inconclusive: 17.8 µM [inhibitor, single point] | 
COc1ccccc1C(=O)N1CCCN(c2nnc3cccc(C)n23)CC1 | inconclusive: 0.631 µM [inhibitor, full curve] | 
Cc1c(C(=O)Nc2ccc(F)cc2F)nnn1-c1ccccc1Br | inconclusive: 8.91 µM [inhibitor, single point] | 
Cc1nnc2n1CCC(N(C)C(=O)c1ccsc1)CC2 (stereo not drawn) | inactive | 
O=C1NC(=NC2CCCCC2)C2(CCN(S(=O)(=O)c3cccs3)CC2)N1c1cc(F)cc(F)c1 |  | inconclusive: -71.9% [inhibitor]
O=C(c1nnn2cc(-c3ccccc3)[nH]c(=O)c12)N1CCN(C2CCCCC2)CC1 | inconclusive: 8.91 µM [inhibitor, partial curve] | 
Cn1c(=O)c2sccc2n2c(CCCC(=O)Nc3ccc(F)c(F)c3)nnc12 | inconclusive: 3.16 µM [inhibitor, full curve] | 
COc1cccc(-c2nc(S(=O)(=O)c3ccccc3)c(NCc3ccccc3)o2)c1 | inconclusive: 20 µM [inhibitor, partial curve, poor fit] | 
CN(Cc1cccnc1)Cc1ccccc1C(F)(F)F | inconclusive: 0.562 µM [inhibitor, full curve, poor fit] | 
CCC1=C(C(=O)OC)C(c2ccccc2OC)N2C(CC(=O)NC(C)(C)C)=CSC2=N1 (stereo not drawn) | inconclusive: 2.24 µM [inhibitor, single point] | 
COc1ccc(-c2ccc3c(n2)CN(Cc2ccccc2F)C(=O)CO3)cc1OC | inconclusive: 14.1 µM [inhibitor, single point] | 
COCC1CN(C(C)=O)CC12CCN(C1CCN(C(C)=O)CC1)CC2 (stereo not drawn) | inconclusive: 3.98 µM [inhibitor, single point] | 
COc1ccc(-c2nc3ccccc3s2)cc1NC(=O)c1ccccc1OC |  | inconclusive: -43.8% [inhibitor] [at 5.79 µM]
CCCCNC(=O)CSc1c2c(nc3ccc(Cl)cc13)CCCC2 | inactive | 
N#Cc1ccc(S(=O)(=O)N2CCCCCCNC(=O)[C@@H]3CCC[C@@H]32)cc1 | inconclusive: 7.94 µM [inhibitor, partial curve, poor fit] | 
CCNC(=O)NC[C@@H]1C=C(C)[C@H](CC(=O)NCCOC)C[C@H]1C(C)C | inactive | 
Cc1cccc(C)c1NC(=O)c1ccc2nc(CCc3ccccc3)oc2c1 | inconclusive: 17.8 µM [inhibitor, single point] | 
Cn1c(CNC(=O)C[C@H]2NC(=O)c3ccccc3NC2=O)nc2ccccc21 | inactive | 
O=C(c1ccco1)N1CC[C@@H]2[C@@H](CCC(=O)N2CCc2ccccn2)C1 | inactive | 
O=C(Nc1ccc(Cl)cc1)c1ccc2c(c1)N(Cc1ccccc1)C(=O)c1ccccc1S2(=O)=O | inconclusive: 14.1 µM [inhibitor, single point] | 
